# Assay results from the supplement of paper PMC8728848.
# The other results are listed elsewhere or left out.
# B1: CML1 (Coprinopsis cinerea) (protein)
# chain: MAIFHTGSELFIITRGPGKLTLLTWGGLNNLRSVIGAIPTENTGVTKWAVSFSHNYTRFSFIWEGQGEACYQIGNGLTRSPVGRSWSSSSTIHWGSSTVITEDVTSVVPGAVNRDKVTTAYALPDNL
# How the values were obtained:
# Assay in all cases: glycan array binding signal (z-score within array); higher = stronger binding
# Details in all cases: glycan notation: IUPAC condensed, linker removed
# [1] = molecular target: Man(a1-2)Man(a1-3)[Man(a1-2)Man(a1-6)]Man
# Procedure, shortened: (§1)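 Negative Z-scores can be read as non-binding. The Z-score is calculated within each array and then averaged across arrays of one protein sequence at different concentrations or buffers and across linkers. Arrays, 3228 in all, were curated from the Consortium for Functional Glycomics database and kept only where the protein sequence was available.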
# [2] = molecular target: Man(a1-2)Man(a1-3)[Man(a1-2)Man(a1-6)]Man(a1-6)[Man(a1-2)Man(a1-2)Man(a1-3)]Man
# Procedure, shortened: as §1
# [3] = molecular target: Man(a1-2)Man(a1-3)[Man(a1-2)Man(a1-6)]Man(a1-6)[Man(a1-2)Man(a1-2)Man(a1-3)]Man(b1-4)GlcNAc(b1-4)GlcNAc
# Procedure, shortened: as §1
# [4] = molecular target: Man(a1-2)Man(a1-3)[Man(a1-6)]Man(a1-6)[Man(a1-2)Man(a1-3)]Man(b1-4)GlcNAc(b1-4)GlcNAc
# Procedure, shortened: as §1
# [5] = molecular target: Man(a1-2)Man(a1-6)[Man(a1-3)]Man(a1-6)[Man(a1-2)Man(a1-2)Man(a1-3)]Man
# Procedure, shortened: as §1
# [6] = molecular target: Man(a1-2)Man(a1-6)[Man(a1-3)]Man(a1-6)[Man(a1-2)Man(a1-2)Man(a1-3)]Man(b1-4)GlcNAc(b1-4)GlcNAc
# Procedure, shortened: as §1
# [7] = molecular target: Man(a1-3)[Man(a1-6)]Man
# Procedure, shortened: as §1
# [8] = molecular target: Man(a1-3)[Man(a1-6)]Man(a1-6)[Man(a1-2)Man(a1-3)]Man(b1-4)GlcNAc(b1-4)GlcNAc
# Procedure, shortened: as §1
# [9] = molecular target: Man(a1-3)[Man(a1-6)]Man(a1-6)[Man(a1-3)]Man
# Procedure, shortened: as §1
# [10] = molecular target: Man(a1-3)[Man(a1-6)]Man(a1-6)[Man(a1-3)]Man(b1-4)GlcNAc(b1-4)GlcNAc
# Procedure, shortened: as §1
# [11] = molecular target: Man(a1-3)[Man(a1-6)]Man(b1-4)GlcNAc(b1-4)GlcNAc
# Procedure, shortened: as §1
# [12] = molecular target: Man(a1-3)[Man(a1-6)]Man(b1-4)GlcNAc(b1-4)[Fuc(a1-6)]GlcNAc
# Procedure, shortened: as §1
# [13] = molecular target: Man(a1-6)Man
# Procedure, shortened: as §1
# [14] = molecular target: Man(b1-4)GlcNAc
# Procedure, shortened: as §1
# [15] = molecular target: MurNAc(b1-4)GlcNAc
# Procedure, shortened: as §1
# [16] = molecular target: Neu5Ac(a2-3)Gal
# Procedure, shortened: as §1
# [17] = molecular target: Neu5Ac(a2-3)Gal(b1-3)GalNAc
# Procedure, shortened: as §1
# [18] = molecular target: Neu5Ac(a2-3)Gal(b1-3)GalNAc(b1-3)Gal(a1-4)Gal(b1-4)Glc
# Procedure, shortened: as §1
# [19] = molecular target: Neu5Ac(a2-3)Gal(b1-3)GalNAc(b1-4)Gal(b1-4)Glc
# Procedure, shortened: as §1
# [20] = molecular target: Neu5Ac(a2-3)Gal(b1-3)GalNAc(b1-4)[Neu5Ac(a2-3)]Gal(b1-4)Glc
# Procedure, shortened: as §1
# [21] = molecular target: Neu5Ac(a2-3)Gal(b1-3)GalNAc(b1-4)[Neu5Ac(a2-8)Neu5Ac(a2-3)]Gal(b1-4)Glc
# Procedure, shortened: as §1
# [22] = molecular target: Neu5Ac(a2-3)Gal(b1-3)GalNAc6S
# Procedure, shortened: as §1
# [23] = molecular target: Neu5Ac(a2-3)Gal(b1-3)GlcNAc
# Procedure, shortened: as §1
# [24] = molecular target: Neu5Ac(a2-3)Gal(b1-3)GlcNAc(b1-2)Man
# Procedure, shortened: as §1
# [25] = molecular target: Neu5Ac(a2-3)Gal(b1-3)GlcNAc(b1-2)Man(a1-3)[GlcNAc(b1-4)][Neu5Ac(a2-3)Gal(b1-3)GlcNAc(b1-2)Man(a1-6)]Man(b1-4)GlcNAc(b1-4)GlcNAc
# Procedure, shortened: as §1
# [26] = molecular target: Neu5Ac(a2-3)Gal(b1-3)GlcNAc(b1-2)Man(a1-3)[Neu5Ac(a2-3)Gal(b1-3)GlcNAc(b1-2)Man(a1-6)]Man(b1-4)GlcNAc(b1-4)GlcNAc
# Procedure, shortened: as §1
# [27] = molecular target: Neu5Ac(a2-3)Gal(b1-3)GlcNAc(b1-2)[Neu5Ac(a2-3)Gal(b1-3)GlcNAc(b1-4)]Man(a1-6)[Neu5Ac(a2-3)Gal(b1-3)GlcNAc(b1-2)Man(a1-3)]Man(b1-4)GlcNAc(b1-4)GlcNAc
# Procedure, shortened: as §1
# [28] = molecular target: Neu5Ac(a2-3)Gal(b1-3)GlcNAc(b1-3)Gal(b1-3)GlcNAc
# Procedure, shortened: as §1
# [29] = molecular target: Neu5Ac(a2-3)Gal(b1-3)GlcNAc(b1-3)Gal(b1-4)GlcNAc
# Procedure, shortened: as §1
# [30] = molecular target: Neu5Ac(a2-3)Gal(b1-3)GlcNAc(b1-3)GalNAc
# Procedure, shortened: as §1
# [31] = molecular target: Neu5Ac(a2-3)Gal(b1-3)GlcNAc(b1-6)GalNAc
# Procedure, shortened: as §1
# [32] = molecular target: Neu5Ac(a2-3)Gal(b1-3)GlcNAc6S
# Procedure, shortened: as §1
# [33] = molecular target: Neu5Ac(a2-3)Gal(b1-3)[Fuc(a1-4)]GlcNAc
# Procedure, shortened: as §1
# [34] = molecular target: Neu5Ac(a2-3)Gal(b1-3)[Fuc(a1-4)]GlcNAc(b1-3)Gal(b1-3)[Fuc(a1-4)]GlcNAc
# Procedure, shortened: as §1
# [35] = molecular target: Neu5Ac(a2-3)Gal(b1-3)[Fuc(a1-4)]GlcNAc(b1-3)Gal(b1-4)[Fuc(a1-3)]GlcNAc
# Procedure, shortened: as §1
# [36] = molecular target: Neu5Ac(a2-3)Gal(b1-3)[GlcNAc(b1-6)]GalNAc
# Procedure, shortened: as §1
# [37] = molecular target: Neu5Ac(a2-3)Gal(b1-3)[Neu5Ac(a2-6)]GalNAc
# Procedure, shortened: as §1
# [38] = molecular target: Neu5Ac(a2-3)Gal(b1-3)[Neu5Ac(a2-6)]GlcNAc(b1-3)[Fuc(a1-3)[Gal(b1-4)]GlcNAc(b1-6)]Gal(b1-4)Glc
# Procedure, shortened: as §1
binder,measurement,setting,value
B1,glycan array binding signal (z-score),[1],-0.341
same,glycan array binding signal (z-score),[2],-0.35
same,glycan array binding signal (z-score),[3],-0.358
same,glycan array binding signal (z-score),[4],-0.32
same,glycan array binding signal (z-score),[5],-0.341
same,glycan array binding signal (z-score),[6],-0.334
same,glycan array binding signal (z-score),[7],-0.34
same,glycan array binding signal (z-score),[8],-0.342
same,glycan array binding signal (z-score),[9],-0.308
same,glycan array binding signal (z-score),[10],-0.329
same,glycan array binding signal (z-score),[11],-0.349
same,glycan array binding signal (z-score),[12],-0.334
same,glycan array binding signal (z-score),[13],-0.336
same,glycan array binding signal (z-score),[14],-0.333
same,glycan array binding signal (z-score),[15],-0.331
same,glycan array binding signal (z-score),[16],-0.357
same,glycan array binding signal (z-score),[17],-0.342
same,glycan array binding signal (z-score),[18],-0.333
same,glycan array binding signal (z-score),[19],-0.369
same,glycan array binding signal (z-score),[20],-0.333
same,glycan array binding signal (z-score),[21],-0.344
same,glycan array binding signal (z-score),[22],-0.335
same,glycan array binding signal (z-score),[23],-0.329
same,glycan array binding signal (z-score),[24],-0.346
same,glycan array binding signal (z-score),[25],-0.321
same,glycan array binding signal (z-score),[26],-0.355
same,glycan array binding signal (z-score),[27],-0.346
same,glycan array binding signal (z-score),[28],-0.345
same,glycan array binding signal (z-score),[29],-0.298
same,glycan array binding signal (z-score),[30],-0.347
same,glycan array binding signal (z-score),[31],-0.325
same,glycan array binding signal (z-score),[32],-0.32
same,glycan array binding signal (z-score),[33],4.64
same,glycan array binding signal (z-score),[34],2.76
same,glycan array binding signal (z-score),[35],1.77
same,glycan array binding signal (z-score),[36],-0.341
same,glycan array binding signal (z-score),[37],-0.327
same,glycan array binding signal (z-score),[38],-0.293
